Measurements: patent publication US20260015418A1 (ABL BIO, published 2026)

Experiments:
[1] = target: T1, human ROR1-Fc protein (Sino Biological, 13968-H02H1) (human, UniProt Q01973 in part); test: DACE ELISA; 7 days in human serum, against day 0
T1 construct: Bought protein; also called human ROR1 protein (13968-H02H1, Fc tag)
Experimental: (§1) A 96-well microtiter plate (NUNC, 446612) was coated overnight at 4° C. with human ROR1-Fc protein (Sinobio, 13968-H02H1) at 100 ng/well in PBS. The plate was then incubated with 1% BSA buffer (1×PBS, 1% (v/v) BSA) at 200 μl/well at 37° C. for 2 hours to block non-specific binding. Thereafter, the blocking solution was discarded and fourfold dilutions of each bispecific antibody test material (starting from 100 nM) were added to the wells. The plate was incubated at 37° C. for 2 hours and then washed with PBS-T (1×PBS/0.05% (v/v) Tween-20). Subsequently, human 4-1BB-His protein (Sinobio, 10041-H08H) dissolved in 1% BSA buffer was added at 100 ng/well and incubated at 37° C. for 1 hour. After washing with PBS-T, the plate was incubated with anti-His HRP (Roche, Cat: 11965085001) at 37° C. for 1 hour. After washing, color development was performed with TMB (tetramethylbenzidine, Sigma, T0440) and the color development was stopped with 0.5M sulfuric acid (Samchun Chemicals, S1410), and the absorbance (OD) at 450-650 nm was read using a spectrophotometer. Four-parameter logistic curve analysis was performed using GraphPad software.

[2] = target: T1, human ROR1-Fc protein (Sino Biological, …); test: DACE ELISA; 14 days in monkey serum, against day 0
Experimental: as §1

[3] = target: T1, human ROR1-Fc protein (Sino Biological, …); test: DACE ELISA; 7 days in monkey serum, against day 0
Experimental: as §1

[4] = target: T1, human ROR1-Fc protein (Sino Biological, …); test: DACE ELISA; 0 day in monkey serum, against day 0
Experimental: as §1

[5] = target: T1, human ROR1-Fc protein (Sino Biological, …); test: DACE ELISA: ROR1-Fc coated, detection with 4-1BB-His and anti-His HRP
Experimental: Briefly, 96-well microtiter plates (NUNC, 446612) were coated overnight at 4° C. with human ROR1-Fc protein (Sinobio, 13968-H02H1) in PBS at 10 ng/well, then the plates were incubated with 1% BSA buffer (1×PBS, 1% (v/v) BSA) at 200 μl/well for 2 hours at 37° C. to prevent nonspecific binding. After blocking nonspecific binding, the wells were washed, and serial dilutions of the bispecific antibody test materials (starting at 100 nM) were added to each well. After incubation for 2 hours at 37° C., the plates were washed with PBS-T (1×PBS/0.05% (v/v) Tween-20). Then, human 4-1BB-His protein (Sinobio, 10041-H08H) dissolved in 1% (v/v) BSA was added to each well at 100 ng/well and incubated for 1 hour at 37° C. After washing the plates with PBS-T, anti-His HRP (Roche, Cat: 11965085001) was added and incubated for 1 hour at 37° C. After washing, color development was conducted TMB (tetramethylbenzidine, Sigma, T0440) and the reaction was stopped with 0.5M sulfuric acid (Samchun Chemicals, S1410), followed by reading absorbance (OD) at 450-650 nm in a spectrophotometer. Four-parameter logistic curve analysis was performed using GraphPad software.

[6] = target: T1, human ROR1-Fc protein (Sino Biological, …); test: DACE ELISA; 14 days in human serum, against day 0
Experimental: as §1

[7] = target: T1, human ROR1-Fc protein (Sino Biological, …); test: DACE ELISA; 3 days in monkey serum, against day 0
Experimental: as §1

[8] = target: T1, human ROR1-Fc protein (Sino Biological, …); test: DACE ELISA (ROR1-Fc coated, 4-1BB-His detection); 3 days in monkey serum at 37°C
Experimental: as §1

[9] = target: T1, human ROR1-Fc protein (Sino Biological, …); test: SPR Biacore T200, ROR1-Fc amine-coupled on CM5, antibody as analyte, bivalent analyte model (Ka1)
Experimental: The binding affinity of both BA6M11(WT)x1A10M12 and BA6M11 (NA)x1A10M12 clones, which are anti-ROR1/anti-4-1BB bispecific antibodies comprising BA6M11 clone, was assessed using surface plasmon resonance (SPR). The antigens used for this assessment were human ROR1 protein (13968-H02H1, Fc tag) from Sino Biological and human 4-1BB protein (9220-4B-100, his tag) from R&D Systems. The measurements were conducted on a Biacore T200 instrument (Cytiva).
The CM5 chip (Cytiva, BR100530) was coated with a 5 μg/mL human ROR1 protein dilution in Acetate 4.0 (Cytiva, BR100349) using the amine coupling method (Cytiva, BR100050) to achieve a surface density of about 80 RU. […] These diluted antibody samples were then flowed over the human ROR1 protein-immobilized CM5 chip for approximately 60 seconds to conjugate the sample to the antigen, followed by flowing HBS-EP buffer (1×) over the sample-antigen complex for 180 seconds to dissociate the sample from the antigen. […] Binding affinity was analyzed using the bivalent analyte model to derive the primary association rate constant (Ka1) and primary dissociation rate constant (Kd1). The equilibrium dissociation constant (KD) was calculated by dividing the primary dissociation rate constant by the primary association rate constant, and this value was used to represent the final binding affinity.

[10] = target: T1, human ROR1-Fc protein (Sino Biological, …); test: DACE ELISA; 3 days in human serum, against day 0
Experimental: as §1

[11] = target: T1, human ROR1-Fc protein (Sino Biological, …); test: DACE ELISA; 0 day in human serum, against day 0
Experimental: as §1

T1 sequence (Q01973 30-403 limits assumed): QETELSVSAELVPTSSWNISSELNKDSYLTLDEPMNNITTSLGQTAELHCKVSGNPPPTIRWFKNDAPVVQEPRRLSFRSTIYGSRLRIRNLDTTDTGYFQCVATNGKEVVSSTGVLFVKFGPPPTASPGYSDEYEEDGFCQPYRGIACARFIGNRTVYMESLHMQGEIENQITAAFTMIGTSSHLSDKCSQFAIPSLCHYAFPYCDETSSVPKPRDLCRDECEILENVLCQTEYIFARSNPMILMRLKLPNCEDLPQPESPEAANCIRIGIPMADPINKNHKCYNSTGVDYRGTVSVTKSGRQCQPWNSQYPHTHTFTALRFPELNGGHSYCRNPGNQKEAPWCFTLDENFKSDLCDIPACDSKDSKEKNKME

EC50 Ratio (%) [1]: 89%
EC50 Ratio (%) [2]: 76%
EC50 Ratio (%) [3]: 81%
EC50 Ratio (%) [4]: 100%
EC50 [5]: 0.268 nM
EC50 Ratio (%) [6]: 91%
EC50 Ratio (%) [7]: 87%
EC50 [8]: 0.238 nM
kon [9]: 229000 M⁻¹ s⁻¹
EC50 Ratio (%) [10]: 96%
EC50 Ratio (%) [11]: 100%
B1: BA6M11(NA)x1A10M12 anti-ROR1/anti-4-1BB bispecific antibody (bispecific antibody, human IgG1, lambda)
heavy: EVQLLESGGGLVQPGGSLRLSCAASGFTFSNYDMSWVRQAPGKGLEWVSAIYHSGSSKYYADSVKGRFTISRDNSKNTLYLQMNSLRAEDTAVYYCARGGSGAWDTGFDYWGQGTLVTVSSASTKGPSVFPLAPSSKSTSGGTAALGCLVKDYFPEPVTVSWNSGALTSGVHTFPAVLQSSGLYSLSSVVTVPSSSLGTQTYICNVNHKPSNTKVDKKV[human IgG1 Fc with changes not shown]GSGSGSGSGSGSGSGSGSQSVLTQPPSASGTPGQRVTISCSGSSSNIGNNYVTWYQQLPGTAPKLLIYADSHRPSGVPDRFSGSKSGTSASLAISGLRSEDEADYYCATWDYSLSGYVFGCGTKLTVLGGGGSGGGGSGGGGSGGGGSEVQLLESGGGLVQPGGSLRLSCAASGFTFSSYDMSWVRQAPGKCLEWVSWISYSGGSIYYADSVKGRFTISRDNSKNTLYLQMNSLRAEDTAVYYCARDAQRNSMREFDYWGQGTLVTVSS
light: QSVLTQPPSASGTPGQRVTISCSGSSSNIGSNDVSWYQQLPGTAPKLLIYYENNRPSGVPDRFSGSKSGTSASLAISGLRSEDEADYYCGAWDDSLSGYVFGGGTKLTVLGQPKAAPSVTLFPPSSEELQANKATLVCLISDFYPGAVTVAWKADSSPVKAGVETTTPSKQSNNKYAASSYLSLTPEQWKSHRSYSCQVTHEGSTVEKTVAPAECS
notes: As BA6M11(WT)x1A10M12 but with the N297A (NA) mutation in the Fc; also called BA6M11(NA) × 1A10M12
